In all, about 310,000 compounds went through this assay and about 18,000 (5.8%) were called active. Inconclusive means that the source gave no clear call. Such entries were picked first, then a sample of the others. The call rests on the fitted dose curve; in most records, active means well fitted inhibition curve with a large enough effect; inconclusive means small, poorly fitted or top-dose-only effect, or another doubt; inactive means no such curve, though single readings can be large or run the other way. Potencies of inconclusive entries are left out as doubtful fits.
Assay: Primary qHTS for delayed death inhibitors of the malarial parasite plastid, 48 hour incubation
Settings: P. falciparum luciferase growth in erythrocytes; series mostly up to 28.7 µM; activity change, negative = inhibition: at the top concentration
Procedure, shortened: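 Compounds are pin-transferred into medium, infected erythrocytes (2% hematocrit, 0.1% parasitemia final) are added, and plates sit one parasite generation at 37 C in 5% CO2. Detection reagent is then added and luminescence measured.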
On the % scale 0 is the no-effect control and ±100 the full control effect; potency means the concentration at half of the fitted maximal effect; tags describe the fitted curve by direction and shape.

Compound	activity change, negative = inhibition	Potency
CCOC(=O)CSc1nc2ccccc2c(=O)n1CCN1CCOCC1	inactive: -21.4%	
CC1CC(C)(C)CC2(C1)NC(=O)N(CC(=O)Nc1cc([N+](=O)[O-])ccc1F)C2=O (stereo unspecified)		inconclusive [inhibitor, single point]
CCOc1cc(/C=N/NC(=O)COc2ccc(C)cc2)ccc1OC(=O)c1cccs1	inactive: 7.89%	
COc1ccc(NC(=O)CSc2nnc(-c3ccoc3C)n2CCc2ccccc2)cc1		inconclusive [inhibitor, single point]
CCN(CC)C(=O)c1cc(C(C)(C)C)c(O)c(C(C)(C)C)c1		inconclusive [inhibitor, single point]
Cc1ccc(Nc2cc(C)c3ccc(O)cc3n2)cc1C		inconclusive [inhibitor, full curve]
O=S(=O)(Cc1ccccc1)C1CCCCC1O (stereo unspecified)	inactive: -6.92%	
CC(=O)c1ccc(-c2ccccc2OC(F)(F)F)o1		inconclusive [inhibitor, full curve, poor fit]
FC(F)(F)c1nc(-c2ccncc2)ncc1-c1nnnn1-c1ccccc1		inconclusive [inhibitor, partial curve]
COc1ccc(C(=O)NCC(c2ccc3c(c2)OCO3)N2CCN(c3ccc(OC)cc3)CC2)cc1 (stereo unspecified)		inconclusive [inhibitor, partial curve]
CCOC(=O)CSc1nc(C)c(C(C)=O)cc1C#N		inconclusive [inhibitor, single point]
COc1ccc(OC)c(CC(NC(C)=O)C(=O)NC2CCN(c3c(Cc4ccccc4)c(C)nc4ncnn34)CC2)c1 (stereo unspecified)		inconclusive [inhibitor, partial curve, poor fit]
COc1ccccc1NC(=O)COc1ccc2c(c1)OCO2	inactive: -1.89%	
COc1cc(OC)c(C(=O)OCC(=O)Nc2ccccc2Cl)cc1OC	inactive: 18.8%	
COc1cc(/C=C2\N=C(c3c(-c4ccccc4)noc3C)OC2=O)ccc1OC(C)=O		active: 13.1 µM
COc1cc(CNC(C)C23CC4CC(CC(C4)C2)C3)cc(OC)c1OC (stereo unspecified)		active: 11.7 µM
O=S(=O)(c1ccc(Cl)cc1)N1CCN(c2ccc(N3CCOCC3)nn2)CC1		inconclusive [inhibitor, full curve]
Cc1c(/C=N/NC(=O)CNc2ccccc2)c2ccccn2c1C(=O)c1ccccc1		active: 2.08 µM
CC(=O)N1CCN(C(=O)c2ccc3c(c2)OCCO3)CC1	inactive: 6.57%	
CCN(CC)S(=O)(=O)c1ccc(NC2CCN(Cc3ccccc3)CC2)nc1	inactive: -18.2%	
CCC(=O)Nc1cccc(-c2cc3ccccc3oc2=O)c1	inactive: 100%	
CCOC(=O)C1=C(C)NC(C)=C(C(=O)OC)C1c1ccco1 (stereo unspecified)		inconclusive [inhibitor, partial curve, poor fit]

Compound	activity change, negative = inhibition	Potency
CC(C)OC(=O)c1cc2c(=O)[nH]c(C(Cl)(Cl)Cl)nc2o1		inconclusive [inhibitor, partial curve, poor fit]
Cc1[nH]c2ccc(C(=O)NC3CCC(C)CC3)cc2c1C (stereo unspecified)	inactive: 11.8%	
O=C(N/N=C/c1ccc([N+](=O)[O-])o1)c1cc(-c2ccc(-c3ccccc3)cc2)nc2ccccc12		inconclusive [inhibitor, full curve, poor fit]
Cc1ccc(CN(C)C(=O)c2cccc(S(=O)(=O)N3CCCC3)c2)cc1		inconclusive [inhibitor, single point]
Cc1nc2ccc(F)cc2cc1C(=O)NCC1CCCO1 (stereo unspecified)		inconclusive [inhibitor, single point]
CCC1Oc2ccc(C)cc2N(CC(=O)NCc2ccccc2OC)C1=O (stereo unspecified)		inconclusive [inhibitor, full curve, poor fit]
N#Cc1cc(C(=O)c2cc(Br)ccc2O)cn(Cc2ccccc2)c1=O		inconclusive [inhibitor, full curve, poor fit]
O=C1/C(=C/c2ccccc2F)SC(=S)N1CC(=O)N1CCCCC1c1cccnc1 (stereo unspecified)	inactive: -6.92%	
O=C(NC(=S)N1CCN(c2ccccc2)CC1)c1ccc(S(=O)(=O)N2CCOCC2)cc1		inconclusive [inhibitor, single point]
COc1cc(CNCCNCC(C)O)ccc1OCc1ccc(Cl)nc1 (stereo unspecified)		inconclusive [inhibitor, partial curve]
CCn1c(C)nc2cc(C(=O)NNS(=O)(=O)c3ccccc3F)ccc21	inactive: 6.74%	
O=C(O)C1CCN(C(=O)c2ccccc2N2C(=O)[C@@H]3Cc4c([nH]c5ccccc45)C(c4cccc(Cl)c4)N3C2=O)CC1 (stereo partly specified)		inconclusive [inhibitor, partial curve]
COc1ccccc1CNCc1ccc(C)cc1		inconclusive [inhibitor, full curve, poor fit]
CCN(CC)c1ccc(CC2C(=O)N(C)C(=O)N(C)C2=O)cc1		inconclusive [inhibitor, single point]
COc1cc(S(=O)(=O)Nc2cccc(C)c2)ccc1NC(=O)c1cccnc1	inactive: -12%	
CC1(C)CC(NC(=O)N2c3ccccc3Sc3ccccc32)CC(C)(C)N1		inconclusive [inhibitor, partial curve]
Cc1ccc2c(c1)nnn2C1CCN(CC(=O)NCc2ccccc2F)CC1		inconclusive [inhibitor, partial curve]
CCOc1ccc(CN2CCNC(=O)C2CC(=O)NCc2ccccn2)cc1 (stereo unspecified)		inconclusive [inhibitor, partial curve, poor fit]
COc1cc2c(cc1OC)C(c1cc(Br)c(OC)c(OC)c1)CC(=O)N2 (stereo unspecified)		inconclusive [inhibitor, single point]
COc1ccc(/C=N/OCC(=O)N2CC3(C)CC2CC(C)(C)C3)cc1OC (stereo unspecified)		inconclusive [inhibitor, partial curve]
O=C(CCn1c(=O)c2cccn2c2ccccc21)Nc1ccc(F)cc1		inconclusive [inhibitor, single point]
NC(=O)c1ccc(NC(=O)COc2coc(CN3CCc4ccccc4C3)cc2=O)cc1		inconclusive [inhibitor, single point]

Compound	activity change, negative = inhibition	Potency
Cc1cc(NC(=O)COC(=O)c2c(C)nn(Cc3ccccc3Cl)c2Cl)no1	inactive: -7.44%	
COc1ccc(N2CC(NC(=O)N3CCc4ccccc43)CC2=O)cc1OC (stereo unspecified)	inactive: -9.42%	
COc1cc2[nH]c(=O)n(CCCCCC(=O)N3CCN(c4ccccc4)CC3)c(=O)c2cc1OC		active: 7.38 µM
CCOC(=O)c1ccc(N2C(=O)C(CC(N)=O)N(NC(=O)c3cccc(F)c3)C2=S)cc1 (stereo unspecified)		inconclusive [inhibitor, partial curve]
O=C(CN1C(=O)NC2(CCCCC2)C1=O)NCCCSc1ccccc1		inconclusive [inhibitor, single point]
O=C(Nc1nc2ccccc2[nH]1)C1CCN(C(=O)c2ccc(F)cc2)CC1	inactive: -6.75%	
CCOc1ccc2ccccc2c1C1NC(=O)NC(C)=C1C(=O)OCCOC (stereo unspecified)		inconclusive [inhibitor, single point]
CN(c1cccc(Cl)c1)S(=O)(=O)c1cccc(C(=O)NCc2ccncc2)c1	inactive: -10.4%	
O=C(c1cc(Cl)nc2ccccc12)N1CCN(S(=O)(=O)c2ccccc2[N+](=O)[O-])CC1		inconclusive [inhibitor, partial curve, poor fit]
CC(C)C(O)(c1ccccc1)C(CN1CCOCC1)c1ccccc1 (stereo unspecified)		inconclusive [inhibitor, partial curve, poor fit]
Cc1cc2nc3c(=O)[nH]c(=O)nc-3n(C[C@H](O)[C@H](O)[C@H](O)COP(=O)(O)OP(=O)(O)OC[C@H]3O[C@@H](n4cnc5c(N)ncnc54)[C@H](O)[C@@H]3O)c2cc1C		inconclusive [inhibitor, partial curve, poor fit]
Cc1ccc(OP(=O)(NC(C)c2ccccc2)Oc2ccc(C)cc2)cc1 (stereo unspecified)		inconclusive [inhibitor, partial curve, poor fit]
CCOC(=O)N1CCN(C(=O)c2ccc(N(C)S(=O)(=O)c3ccc(C)cc3)cc2)CC1		inconclusive [inhibitor, partial curve, poor fit]
CC(C)(C)c1cnnn1-c1cccc([N+](=O)[O-])c1	inactive: 7.36%	
O=C(COc1cccc2c1CCN(Cc1ccccc1F)C2=O)N1CCCCC1		inconclusive [inhibitor, full curve, poor fit]
CCCCN(C(=O)c1ccc(-c2ccc(Cl)cc2)o1)c1c(N)n(CCC)c(=O)[nH]c1=O		inconclusive [inhibitor, partial curve]
Cc1ccc(NC(=S)NCCSc2ccc(Cl)cc2)cc1		active: 11.7 µM
Cn1cc(C(=O)c2ccc(F)cc2)cc1-c1nc2ccccc2n1C		inconclusive [inhibitor, single point]
CC1(C)Cc2cccc(OCC(=O)N3CCN(S(=O)(=O)c4ccccc4)CC3)c2O1		inconclusive [inhibitor, partial curve, poor fit]
Cn1c(N)c(Br)c(-c2ccc(F)cc2)c(C#N)c1=O		inconclusive [inhibitor, single point]
CCn1c(=O)n(CC)c2cc(S(=O)(=O)N3CCc4ccccc43)ccc21		inconclusive [inhibitor, partial curve]
O=C(NCC1CCCN1S(=O)(=O)c1cccs1)c1ccccc1 (stereo unspecified)		inconclusive [inhibitor, single point]

Reference: PubChem BioAssay AID504832 (National Center for Advancing Translational Sciences (NCATS), 2011)
